# Assay results from the supplement of paper PMC8728848.
# The list shows a part of the results.
# B1: Tachylectin-2 (Tachypleus tridentatus), TAL2_TACTR (protein)
# chain: VGGESMLRGVYQDKFYQGTYPQNKNDNWLARATLIGKGGWSNFKFLFLSPGGELYGVLNDKIYKGTPPTHDNDNWMGRAKKIGNGGWNQFQFLFFDPNGYLYAVSKDKLYKASPPQSDTDNWIARATEIGSGGWSGFKFLFFHPNGYLYAVHGQQFYKALPPVSNQDNWLARATKIGQGGWDTFKFLFFSSVGTLFGVQGGKFYEDYPPSYAHDNWLARAKLIGNGGWDDFRFLFF
# Legend:
# Test in all cases: glycan array binding signal (z-score within array); higher = stronger binding
# Details in all cases: glycan notation: IUPAC condensed, linker removed
# Fuc(a1-2)[Gal(a1-3)]Gal = molecular target: Fuc(a1-2)[Gal(a1-3)]Gal
# How it was run: (§1)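 The binding signal is a Z-score computed within each array. Data were drawn from 3228 arrays in the Consortium for Functional Glycomics database, restricted to those with a known protein sequence. Scores were averaged over arrays of the same protein sequence at different concentrations or buffers, and over linkers, and negative values can be taken as non-binding.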
# [1] = molecular target: Fuc(a1-2)[Gal(a1-3)]Gal(b1-3)GlcNAc
# How it was run: as §1
# [2] = molecular target: Fuc(a1-2)[Gal(a1-3)]Gal(b1-3)GlcNAc(b1-2)Man(a1-3)[Fuc(a1-2)[Gal(a1-3)]Gal(b1-3)GlcNAc(b1-2)Man(a1-6)]Man(b1-4)GlcNAc(b1-4)GlcNAc
# How it was run: as §1
# [3] = molecular target: Fuc(a1-2)[Gal(a1-3)]Gal(b1-4)Glc
# How it was run: as §1
# [4] = molecular target: Fuc(a1-2)[Gal(a1-3)]Gal(b1-4)GlcNAc
# How it was run: as §1
# [5] = molecular target: Fuc(a1-2)[Gal(a1-3)]Gal(b1-4)GlcNAc(b1-2)Man(a1-3)[Fuc(a1-2)[Gal(a1-3)]Gal(b1-4)GlcNAc(b1-2)Man(a1-6)]Man(b1-4)GlcNAc(b1-4)GlcNAc
# How it was run: as §1
# [6] = molecular target: Fuc(a1-2)[Gal(a1-3)]Gal(b1-4)[Fuc(a1-3)]GlcNAc
# How it was run: as §1
# [7] = molecular target: Fuc(a1-2)[Gal(a1-4)]Gal(b1-4)GlcNAc
# How it was run: as §1
# [8] = molecular target: Fuc(a1-2)[GalNAc(a1-3)]Gal
# How it was run: as §1
# [9] = molecular target: Fuc(a1-2)[GalNAc(a1-3)]Gal(b1-3)GalNAc(a1-3)[Fuc(a1-2)]Gal(b1-4)GlcNAc
# How it was run: as §1
# [10] = molecular target: Fuc(a1-2)[GalNAc(a1-3)]Gal(b1-3)GlcNAc
# How it was run: as §1
# [11] = molecular target: Fuc(a1-2)[GalNAc(a1-3)]Gal(b1-3)GlcNAc(b1-2)Man(a1-3)[Fuc(a1-2)[GalNAc(a1-3)]Gal(b1-3)GlcNAc(b1-2)Man(a1-6)]Man(b1-4)GlcNAc(b1-4)GlcNAc
# How it was run: as §1
# [12] = molecular target: Fuc(a1-2)[GalNAc(a1-3)]Gal(b1-4)Glc
# How it was run: as §1
# [13] = molecular target: Fuc(a1-2)[GalNAc(a1-3)]Gal(b1-4)GlcNAc
# How it was run: as §1
# [14] = molecular target: Fuc(a1-2)[GalNAc(a1-3)]Gal(b1-4)GlcNAc(b1-2)Man(a1-3)[Fuc(a1-2)[GalNAc(a1-3)]Gal(b1-4)GlcNAc(b1-2)Man(a1-6)]Man(b1-4)GlcNAc(b1-4)GlcNAc
# How it was run: as §1
# [15] = molecular target: Fuc(a1-2)[GalNAc(a1-3)]Gal(b1-4)GlcNAc(b1-3)Gal(b1-4)GlcNAc
# How it was run: as §1
# [16] = molecular target: Fuc(a1-2)[GalNAc(a1-3)]Gal(b1-4)GlcNAc(b1-3)Gal(b1-4)GlcNAc(b1-3)Gal(b1-4)GlcNAc
# How it was run: as §1
# [17] = molecular target: Fuc(a1-2)[GalNAc(a1-3)]Gal(b1-4)[Fuc(a1-3)]GlcNAc
# How it was run: as §1
# [18] = molecular target: Fuc(a1-2)[GalNAc(a1-4)]Gal(b1-4)GlcNAc
# How it was run: as §1
# [19] = molecular target: Fuc(a1-2)[GalNAc(b1-3)]Gal
# How it was run: as §1
# Fuc(a1-3)GlcNAc = molecular target: Fuc(a1-3)GlcNAc
# How it was run: as §1
# [20] = molecular target: Fuc(a1-3)[Gal(b1-4)]Glc6S
# How it was run: as §1
# [21] = molecular target: Fuc(a1-3)[Gal(b1-4)]GlcNAc
# How it was run: as §1
# [22] = molecular target: Fuc(a1-3)[Gal(b1-4)]GlcNAc(b1-2)Man(a1-3)[Fuc(a1-3)[Gal(b1-4)]GlcNAc(b1-2)Man(a1-6)]Man(b1-4)GlcNAc(b1-4)GlcNAc
# How it was run: as §1
# [23] = molecular target: Fuc(a1-3)[Gal(b1-4)]GlcNAc(b1-2)Man(a1-6)[Gal(b1-4)GlcNAc(b1-2)Man(a1-3)]Man(b1-4)GlcNAc(b1-4)GlcNAc
# How it was run: as §1
# [24] = molecular target: Fuc(a1-3)[Gal(b1-4)]GlcNAc(b1-3)Gal(b1-3)[Fuc(a1-4)]GlcNAc
# How it was run: as §1
# [25] = molecular target: Fuc(a1-3)[Gal(b1-4)]GlcNAc(b1-3)GalNAc
# How it was run: as §1
# [26] = molecular target: Fuc(a1-3)[Gal(b1-4)]GlcNAc(b1-4)Gal(b1-4)[Fuc(a1-3)]GlcNAc
# How it was run: as §1
# [27] = molecular target: Fuc(a1-3)[Gal(b1-4)]GlcNAc(b1-4)Gal(b1-4)[Fuc(a1-3)]GlcNAc(b1-4)Gal(b1-4)[Fuc(a1-3)]GlcNAc
# How it was run: as §1
# [28] = molecular target: Fuc(a1-3)[Gal(b1-4)]GlcNAc(b1-6)[Gal(b1-3)GlcNAc(b1-3)]Gal(b1-4)Glc
# How it was run: as §1
binder,measurement,setting,value
B1,glycan array binding signal (z-score),Fuc(a1-2)[Gal(a1-3)]Gal,-0.34
same,glycan array binding signal (z-score),[1],-0.334
same,glycan array binding signal (z-score),[2],-0.294
same,glycan array binding signal (z-score),[3],-0.203
same,glycan array binding signal (z-score),[4],-0.331
same,glycan array binding signal (z-score),[5],-0.291
same,glycan array binding signal (z-score),[6],-0.323
same,glycan array binding signal (z-score),[7],-0.436
same,glycan array binding signal (z-score),[8],3.55
same,glycan array binding signal (z-score),[9],2.04
same,glycan array binding signal (z-score),[10],1.7
same,glycan array binding signal (z-score),[11],2.88
same,glycan array binding signal (z-score),[12],3.28
same,glycan array binding signal (z-score),[13],3.65
same,glycan array binding signal (z-score),[14],4.37
same,glycan array binding signal (z-score),[15],4.29
same,glycan array binding signal (z-score),[16],4.11
same,glycan array binding signal (z-score),[17],3.69
same,glycan array binding signal (z-score),[18],3.88
same,glycan array binding signal (z-score),[19],-0.322
same,glycan array binding signal (z-score),Fuc(a1-3)GlcNAc,-0.364
same,glycan array binding signal (z-score),[20],-0.166
same,glycan array binding signal (z-score),[21],-0.314
same,glycan array binding signal (z-score),[22],-0.271
same,glycan array binding signal (z-score),[23],-0.276
same,glycan array binding signal (z-score),[24],-0.324
same,glycan array binding signal (z-score),[25],-0.292
same,glycan array binding signal (z-score),[26],-0.062
same,glycan array binding signal (z-score),[27],-0.312
same,glycan array binding signal (z-score),[28],-0.294
